# In the supplement of paper PMC12217912:
# Some of the results follow. Sequences were assembled here from the parent chain. Inactive controls read about 0.05.
# B1: TEV protease; numbered along this chain (parent)
# chain: MGESLFKGPRDYNPISSSICHLTNESDGHTTSLYGIGFGPFIITNKHLFRRNNGTLVVQSLHGVFKVKDTTTLQQHLVDGRDMIIIRMPKDFPPFPQKLKFREPQREERICLVTTNFQTKSMSSMVSDTSCTFPSGDGIFWKHWIQTKDGQCGSPLVSTRDGFIVGIHSASNFTNTNNYFTSVPKNFMELLTNQEAQQWVSGWRLNADSVLWGGHKVFMVKPEEPFQPVKEATQL
# Variants of: B1
# Assay: raw area under fraction-flipped curve 0-4 h after induction (AUC4h, not background-subtracted), DNA-recorder readout of cleavage of the substrate (dimensionless); higher = more cleavage of the substrate by the protease variant
# Settings: temperature: 34 °C; time window: 0-4 h after rhamnose induction
# Experimental: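 In vivo DNA recorder in E. coli TOP10(DE3) ΔrhaA at 34 °C. Each TEVp single-site mutant (parent TEVp 0) is paired with a single-site variant of the 7-mer TEVs (canonical ENLYFQ|S). The substrate sits between flexible linkers in a Bxb1-sfGFP-TEVs-SsrA fusion, so cleavage stabilises Bxb1 and speeds flipping of a recombination array, read by NGS. The value is the raw area under the fraction-flipped curve over 0-4 h after rhamnose induction (AUC4h), with ≥20 reads per time point. It is not background-subtracted; inactive controls average about 0.047.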
# 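Further: Bxb1 expression induced with 0.2% (w/v) L-rhamnose at OD600 near 0.5, cultures sampled hourly, flipped fraction per protease–substrate barcode pair counted by paired-end Illumina sequencing.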
Variant,area with substrate ENLCFQS,area with substrate ENLDFQS,area with substrate ENLEFQS,area with substrate ENLFFQS,area with substrate ENLKFQS,area with substrate ENLLFQS,area with substrate ENLNFQS,area with substrate ENLPFQS,area with substrate ENLQFQS,area with substrate ENLRFQS
MGESLFKGPRDYNPISSSICHLTNESDGHTTSLYGIGFGPFIITNKHLFRRNNGTLVVQSLHGVFKVKDTTTLQQHLVDGRDMIIIRMPKDFPPFPQKLKFREPQREERICLVTTNFQTKSMSSMVSDTSCTFPSGDGIFWKHWIQTKDGQCGSPLVSTRDGFIVGIHSASNFTNTNNYFTFVPKNFMELLTNQEAQQWVSGWRLNADSVLWGGHKVFMVKPEEPFQPVKEATQL [S182F],0.0473,0.048,0.0585,0.0582,0.076,0.0554,0.0431,0.0366,0.0452,0.0526
MGESLFKGPRDYNPISSSICHLTNESDGHTTSLYGIGFGPFIITNKHLFRRNNGTLVVQSLHGVFKVKDTTTLQQHLVDGRDMIIIRMPKDFPPFPQKLKFREPQREERICLVTTNFQTKSMSSMVSDTSCTFPSGDGIFWKHWIQTKDGQCGSPLVSTRDGFIVGIHSASNFTNTNRYFTSVPKNFMELLTNQEAQQWVSGWRLNADSVLWGGHKVFMVKPEEPFQPVKEATQL [N178R],,0.0623,,,0.0786,,0.0689,,,0.0702
MGESLFKGPRDYNPISSSICHLTNESDGHTTSLYGIGFGPFIITNKHLFRRNNGTLVVQSLHGVFKVKDTTTLQQHLVDGRDMIIIRMPKDFPPFPQKLKFREPQREERICLVTTNFQTKSMSSMVSDTSCTFPSGDGIFWKHWIQTKDGQCGSPLVSTRDGFIVGIHSASNFTNTNNYFTSVPKNFMELLTNQEAQQWVSGWRLNADSVLWGGHKVFMVKPEEPFQPVKEATQP [L235P],0.0534,0.0646,,0.0931,0.0754,,0.0713,,,0.0992
MGESLFKGPRDYNPISSSICHLTNESDGHTTSLYGIGFGPFIITNKHLFRRNNGTLVVQSLHGVFKVKDTTTLQQHLVDGRDMIIIRMPKDFPPFPQKLKFREPQREERICLVTTNFQTKSMSSMVSDTSCTFPSGDGIFWKHWIQTKDGQCISPLVSTRDGFIVGIHSASNFTNTNNYFTSVPKNFMELLTNQEAQQWVSGWRLNADSVLWGGHKVFMVKPEEPFQPVKEATQL [G153I],0.0525,,0.052,0.0444,,0.0484,,,0.0476,0.0538
MGESLFKGPRDYNPISSSICHLTNESDGHTTSLYGIGFGPFIITNKHLFRRNNGTLVVQSLHGVFKVKDTTTLQQHLVDGRDMIIIRMPKDFPPFPQKLKFREPQREERICLVTTNFQTKSMSSMVSDTSCTFPSGDGIFWKHWIQTKDGQCGSPLVSTRDGFIVGIHSASNFTNTNNYFTSVPKNFMELLTNCEAQQWVSGWRLNADSVLWGGHKVFMVKPEEPFQPVKEATQL [Q194C],,0.0837,,0.1,,,0.0642,0.0504,0.0882,0.0707
MGESLFKGPRDYNPISSSICHLTNESDGHTTSLYGIGFGPFIITNKHLFRRNNGTLVVQSLHGVFKVKDTTTLQQHLVDGRDMIIIRMPKDFPPFPQKLKFRMPQREERICLVTTNFQTKSMSSMVSDTSCTFPSGDGIFWKHWIQTKDGQCGSPLVSTRDGFIVGIHSASNFTNTNNYFTSVPKNFMELLTNQEAQQWVSGWRLNADSVLWGGHKVFMVKPEEPFQPVKEATQL [E103M],,,0.0653,0.0824,0.0724,,,0.0616,,0.0764
MGESLFKGPRDYNPISSSICHLTNESDGHTTSLYGIGFGPFIITNKHLFRRNNGTLVVQSLHGVFKVKDTTTLQQHLVDGRDMIIIRMPKDFPPFPQKLKFRDPQREERICLVTTNFQTKSMSSMVSDTSCTFPSGDGIFWKHWIQTKDGQCGSPLVSTRDGFIVGIHSASNFTNTNNYFTSVPKNFMELLTNQEAQQWVSGWRLNADSVLWGGHKVFMVKPEEPFQPVKEATQL [E103D],0.0657,0.0598,,0.0796,0.0708,,,0.0583,,0.0698
MGESLFKGPRDYNPISSSICHLTNESDGHTTSLYGIGFGPFIITNKHLFRRNNGTLVVQSLHGVFKVKDTTTLQQHLVDGRDMIIIRMPKDFPPFPQKLKFREPQREERICLVTTNFQTKSMSSMVSDTSCTFPSGDGIFWKHWIQTKDYQCGSPLVSTRDGFIVGIHSASNFTNTNNYFTSVPKNFMELLTNQEAQQWVSGWRLNADSVLWGGHKVFMVKPEEPFQPVKEATQL [G150Y],0.0477,0.0623,,0.055,0.0594,0.088,0.0625,0.0595,0.0562,
MGESLFKGPRDYNPISSSICHLTNESDGHTTSLYGIGFGPFIITNKHLFRRNNGTLVVQSLHGVFKVKDTTTLQQHLVDGRDMIIIRMPKDFPPFPQKLKFEEPQREERICLVTTNFQTKSMSSMVSDTSCTFPSGDGIFWKHWIQTKDGQCGSPLVSTRDGFIVGIHSASNFTNTNNYFTSVPKNFMELLTNQEAQQWVSGWRLNADSVLWGGHKVFMVKPEEPFQPVKEATQL [R102E],,0.0509,0.0641,0.0441,0.0447,,0.0556,0.0491,,0.053

# Same assay, conditions: temperature: 34 °C; time window: 0-4 h after rhamnose induction
Variant,area with substrate ENLSFQS,area with substrate ENLWFQS,area with substrate ENLAFQS,area with substrate ENLIFQS,area with substrate ENLTFQS,area with substrate ENLGFQS,area with substrate ENLHFQS,area with substrate ENLMFQS,area with substrate ENLVFQS
MGESLFKGPRDYNPISSSICHLTNESDGHTTSLYGIGFGPFIITNKHLFRRNNGTLVVQSLHGVFKVKDTTTLQQHLVDGRDMIIIRMPKDFPPFPQKLKFREPQREERICLVTTNFQTKSMSSMVSDTSCTFPSGDGIFWKHWIQTKDGQCGSPLVSTRDGFIVGIHSASNFTNTNNYFTFVPKNFMELLTNQEAQQWVSGWRLNADSVLWGGHKVFMVKPEEPFQPVKEATQL [S182F],0.0767,0.0757,,,,,,,
MGESLFKGPRDYNPISSSICHLTNESDGHTTSLYGIGFGPFIITNKHLFRRNNGTLVVQSLHGVFKVKDTTTLQQHLVDGRDMIIIRMPKDFPPFPQKLKFREPQREERICLVTTNFQTKSMSSMVSDTSCTFPSGDGIFWKHWIQTKDGQCGSPLVSTRDGFIVGIHSASNFTNTNRYFTSVPKNFMELLTNQEAQQWVSGWRLNADSVLWGGHKVFMVKPEEPFQPVKEATQL [N178R],,,0.0695,0.099,,,,,
MGESLFKGPRDYNPISSSICHLTNESDGHTTSLYGIGFGPFIITNKHLFRRNNGTLVVQSLHGVFKVKDTTTLQQHLVDGRDMIIIRMPKDFPPFPQKLKFREPQREERICLVTTNFQTKSMSSMVSDTSCTFPSGDGIFWKHWIQTKDGQCGSPLVSTRDGFIVGIHSASNFTNTNNYFTSVPKNFMELLTNQEAQQWVSGWRLNADSVLWGGHKVFMVKPEEPFQPVKEATQP [L235P],,,,,0.0781,,,,
MGESLFKGPRDYNPISSSICHLTNESDGHTTSLYGIGFGPFIITNKHLFRRNNGTLVVQSLHGVFKVKDTTTLQQHLVDGRDMIIIRMPKDFPPFPQKLKFREPQREERICLVTTNFQTKSMSSMVSDTSCTFPSGDGIFWKHWIQTKDGQCISPLVSTRDGFIVGIHSASNFTNTNNYFTSVPKNFMELLTNQEAQQWVSGWRLNADSVLWGGHKVFMVKPEEPFQPVKEATQL [G153I],0.0596,,,,,0.0437,,,
MGESLFKGPRDYNPISSSICHLTNESDGHTTSLYGIGFGPFIITNKHLFRRNNGTLVVQSLHGVFKVKDTTTLQQHLVDGRDMIIIRMPKDFPPFPQKLKFREPQREERICLVTTNFQTKSMSSMVSDTSCTFPSGDGIFWKHWIQTKDGQCGSPLVSTRDGFIVGIHSASNFTNTNNYFTSVPKNFMELLTNCEAQQWVSGWRLNADSVLWGGHKVFMVKPEEPFQPVKEATQL [Q194C],,0.0902,0.0776,,,,0.0584,0.0636,0.0714
MGESLFKGPRDYNPISSSICHLTNESDGHTTSLYGIGFGPFIITNKHLFRRNNGTLVVQSLHGVFKVKDTTTLQQHLVDGRDMIIIRMPKDFPPFPQKLKFRMPQREERICLVTTNFQTKSMSSMVSDTSCTFPSGDGIFWKHWIQTKDGQCGSPLVSTRDGFIVGIHSASNFTNTNNYFTSVPKNFMELLTNQEAQQWVSGWRLNADSVLWGGHKVFMVKPEEPFQPVKEATQL [E103M],0.0587,0.0801,0.0674,0.107,,0.0608,,,0.0791
MGESLFKGPRDYNPISSSICHLTNESDGHTTSLYGIGFGPFIITNKHLFRRNNGTLVVQSLHGVFKVKDTTTLQQHLVDGRDMIIIRMPKDFPPFPQKLKFRDPQREERICLVTTNFQTKSMSSMVSDTSCTFPSGDGIFWKHWIQTKDGQCGSPLVSTRDGFIVGIHSASNFTNTNNYFTSVPKNFMELLTNQEAQQWVSGWRLNADSVLWGGHKVFMVKPEEPFQPVKEATQL [E103D],,,,,,,0.0632,,
MGESLFKGPRDYNPISSSICHLTNESDGHTTSLYGIGFGPFIITNKHLFRRNNGTLVVQSLHGVFKVKDTTTLQQHLVDGRDMIIIRMPKDFPPFPQKLKFREPQREERICLVTTNFQTKSMSSMVSDTSCTFPSGDGIFWKHWIQTKDYQCGSPLVSTRDGFIVGIHSASNFTNTNNYFTSVPKNFMELLTNQEAQQWVSGWRLNADSVLWGGHKVFMVKPEEPFQPVKEATQL [G150Y],0.0283,0.0552,,0.0514,,,,0.0648,
MGESLFKGPRDYNPISSSICHLTNESDGHTTSLYGIGFGPFIITNKHLFRRNNGTLVVQSLHGVFKVKDTTTLQQHLVDGRDMIIIRMPKDFPPFPQKLKFEEPQREERICLVTTNFQTKSMSSMVSDTSCTFPSGDGIFWKHWIQTKDGQCGSPLVSTRDGFIVGIHSASNFTNTNNYFTSVPKNFMELLTNQEAQQWVSGWRLNADSVLWGGHKVFMVKPEEPFQPVKEATQL [R102E],0.0538,,0.0476,,,0.0703,0.0524,0.0689,
